# Read counts are not given, so values of variants with three or more changes are uncertain.
# B1: LINE1-mini (parent)
# chain: GGCAGAGCUCAACACAGCGUGGCAAAGUGGCUGUGGCUAGACUGCC
# Variants of: B1
# Assay: self-cleavage, relative activity (ratio to wild type); higher = more cleavage; in vitro, sequencing; the parent is a self-cleaving ribozyme
row,Variant,self-cleavage
1,C10A G19U G29U,0.03
2,A14C U28C U34A C42U,0.03
3,G1U G5U C37U C45U,0.07
4,A4U A14G C31G,0.03
5,G5A C37A G40C,0.04
6,A6C A12G A14U,0.05
7,G1A C10A C13A U20C G33A A39G,0.02
8,G7U C15U C18A,0.04
9,G1U G7A C13U G17A C37A G44U,0.19
10,A11C A14C C46A,0.02
11,G7C A11G C23U G36C C37G C46A,0.01
12,A4C C13A A14C U20A G30C,0.02
13,G1A A12C C18G G29U,0.01
14,A16G C18U G19A G36U,0.02
15,C3U A12C C46U,0.01
16,C3A A11G G19A G21U C23U,0.03
17,A11U C18A G29U,0.2
18,U20C C23A G30C C45A C46G,0.19
19,A4C C8G G22U C23U U34C C46G,0.04
20,U9C A12C C37U,0.02
21,C13U G21C A39G,0.08

row,Variant,self-cleavage
1,C37U A39U G44U,0.04
2,G5U C10U C18U G19U,0.03
3,G7C A16G G36U,0.1
4,G2U C13G C42A U43A,0.01
5,G7U G22A G35U G40C,0.7
6,G2C A16U G40U A41U,0.13
7,G17A C31G U32G,0.05
8,A4C C10U C18G U28A A41C,0.02
9,G2C G17A G27C G29A C31A C45U,0.04
10,C3G C31U A41C,0.02
11,G5U U9A U43A,0.16
12,C8G C10U C13A G36A,0.08
13,C3A G21C U38G,0.03
14,A4C G5U C42U,0.31
15,U9C U32G G44C,0
16,C18U U38G C42G,0.03
17,A11G U28C G33C C45G,0.02
18,G7A C15U A16U U34G,0.11
19,C3A G5A A16C C18U A24C C46G,0.17
20,U9C A11G C42U,0.02
21,G2A U9G C15G A24G,0.15

row,Variant,self-cleavage
1,C10U G27A C37G,0.01
2,G1C A4C G5C A12C G30C,0.03
3,C13A A14C A39G,0.02
4,G7A A26G G33U,0.2
5,A4G G17A C18A G19U G44U C45A,0.01
6,A6C C18A G19A G33A A39C G44U,0.02
7,G1A A12U G17U G19U A39G,0.01
8,A14G C15U G21A G27U U38A,0.34
9,G5U C23A G33U G35U,0.02
10,C10A C15A G19A U28C,0.01
11,A12U C23G A24C C45A,0.15
12,U9A C13A A14U A41C C42U,0.18
13,G36A U38G C42G C45A,0
14,G5A A12C G30U,0.02
15,G5C A11C U38C,0.02
16,C13A G17A G21C C23A,0.27
17,A6U A14U A24U,0.13
18,C15A A24C G29U U38G U43C,0.01
19,C3A C13U C15G,0.17
20,C13U C15A A24G G35U,0.08
21,C10A G21C U28G G36A,0.01

row,Variant,self-cleavage
1,A6U G7U G19U,0.03
2,A11C G17C C37G A41U,0
3,A4C G44C C45G,0.02
4,A12C C13U U28A,0.04
5,G1U C18G G36U,0.04
6,U20A G29U U34A,0.11
7,A4U G5U U43G,0
8,C3U G5U G7U C23G,0.19
9,G17C A24C U32G G36A,0.01
10,C3G G19C G30C G44U,0.89
11,G33A U34G A39U,0.03
12,G1A G33C C37A,0.05
13,C8U C15A G30C,0.3
14,G2U G5A C31A G35U,0.01
15,C13A G17C A24U,0.06
16,A11G C15U U28G A39U,0.01
17,G5A G19A G22C,0.08
18,G5U G27A C31U,0.06
19,G1C G2A G17U G33U U34C,0.04
20,C8A C15U G30A U34C G35A C45U,0.17
21,C10G G17U G30U U32G,0.04

# — the RNAGym collection of RNA variant scans (doi:10.7554/elife.90254)
